We go through 54 sequences from PMC7819943, “Rice protein-binding microarrays: a tool to detect cis-acting elements near promoter regions in rice”.

The other results are listed elsewhere or left out.

In the experiment the target is T1, OsWOX13 (Oryza sativa, UniProt Q5QMM3 1-267).
T1 sequence: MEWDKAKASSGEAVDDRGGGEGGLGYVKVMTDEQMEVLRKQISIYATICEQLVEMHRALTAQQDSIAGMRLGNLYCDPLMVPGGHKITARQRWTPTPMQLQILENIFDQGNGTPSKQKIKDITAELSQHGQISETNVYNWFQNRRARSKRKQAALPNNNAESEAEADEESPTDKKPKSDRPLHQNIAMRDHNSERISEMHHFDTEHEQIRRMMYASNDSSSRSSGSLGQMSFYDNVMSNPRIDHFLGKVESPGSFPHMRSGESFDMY
Put plainly: protein-binding microarray (RPBM); PBS, 2% BSA, 51.3 ng/ul salmon testes DNA, 50 uM zinc acetate, 200 nM TF, 25 C, 1 h; high values mean tight binding. The note with it: protein: recombinant; tags: N-terminal polyhistidine and DsRed monomer fusion (pET32a); label: CyDye5-dUTP incorporated in the synthesized complementary strand; 3' TTTTT single-stranded linker to array surface; dsDNA, one strand shown. In a few lines:
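Using Ni–NTA, transcription factors fused N-terminally to polyhistidine and DsRed were purified after expression in E. coli BL21-CodonPlus. These were incubated at 200 nM with a blocked, double-stranded custom Agilent array for 1 h at 25 °C in a buffer containing 50 µM zinc acetate, and the array was washed. The binding signal is per-feature fluorescence intensity (arbitrary units) on an Axon 4000B scanner.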
As to “AAAATTTTGACATGTCAAAATTTAGTAAAGTTTTGTTTTGCGGAGTCACCTAGTGCAG”, the binding signal is 8110 fluorescence intensity (a.u.).

Consider “TTAATTAAGTCAATAGATTATGTAATAAGTGGATGTAGTTCGGAGTCACCTAGTGCAG”, for which the binding signal is 24600 fluorescence intensity (a.u.).

Regarding “AAGCCCAATCAAATCAAGCTGCCTCACTGAAAGTCTGAAACGGAGTCACCTAGTGCAG”, the binding signal was 4290 fluorescence intensity (a.u.).

“TTCTAATCAAAATAGTTGGGCTCGTTGCTACCTCTATTTGCGGAGTCACCTAGTGCAG”: the binding signal was 3920 fluorescence intensity (a.u.).

With “GTCAAAGGATAATTATCTAAACTATCGAGGAGACATTTACCGGAGTCACCTAGTGCAG”, the binding signal was 6510 fluorescence intensity (a.u.).

For the sequence “AATCTTTTAAGCTTAATTATGTCATGATCTGACAATGTGGCGGAGTCACCTAGTGCAG”, the binding signal is 10200 fluorescence intensity (a.u.).

Consider “ATTAATCGCTAATTAGGATAATTAATCACTAATTAGTATTCGGAGTCACCTAGTGCAG”, for which the binding signal was 43700 fluorescence intensity (a.u.).

Consider “ATAAACATAATTATTGAAAGCCGTATGAGTAGTTTCTATACGGAGTCACCTAGTGCAG”, for which the binding signal is 26400 fluorescence intensity (a.u.).

As for “TTCCGAATTTTAATTAATCTTGTATTGGATTCTTATATGGCGGAGTCACCTAGTGCAG”, the binding signal was 7360 fluorescence intensity (a.u.).

As to “AGGAACATGATGATGATGATCGCATCATCAACCTCAAGGGCGGAGTCACCTAGTGCAG”, the binding signal was 4170 fluorescence intensity (a.u.).

With “CAATCTGATTATTTTCTAATTGCATACTCTCTAAATTCGCCGGAGTCACCTAGTGCAG”, the binding signal is 39900 fluorescence intensity (a.u.).

As for “TCACTATTAACTTCTAATCAGTTCAGCCGTCTTTGATCGCCGGAGTCACCTAGTGCAG”, the binding signal was 11900 fluorescence intensity (a.u.).

Turning to “AGATAAACAGAAACTGAACAAGAGTTTGTCTTCTACCCTGCGGAGTCACCTAGTGCAG”, the binding signal was 5780 fluorescence intensity (a.u.).

“CGATCAATTAATCAAACTTTTCATCGCCACGCCTCACGCACGGAGTCACCTAGTGCAG”: the binding signal was 12600 fluorescence intensity (a.u.).

As to “TTTGCTCATCCTTTCCATTATCATTGCGACGTACTAATTTCGGAGTCACCTAGTGCAG”, the binding signal is 3270 fluorescence intensity (a.u.).

Turning to “ACCAAAATTTAAAATTTCAACCTTAAATTCAGAGTTGATTCGGAGTCACCTAGTGCAG”, the binding signal is 8290 fluorescence intensity (a.u.).

Turning to “GGAAAGATTTTAATCAAAAGTGTTTTGGAATGTGACAGTGCGGAGTCACCTAGTGCAG”, the binding signal is 4240 fluorescence intensity (a.u.).

Turning to “ATTACGTATTATGCGACTTGATTTATTAAAGGTTTTAAGCCGGAGTCACCTAGTGCAG”, the binding signal is 5340 fluorescence intensity (a.u.).

Turning to “GTAATTACACTGTAACTATAGTGTAACTTGTATGTAACTTCGGAGTCACCTAGTGCAG”, the binding signal was 5000 fluorescence intensity (a.u.).

In the case of “GCTGTGCGTAATTAGATCATGATAAGCTTGATCATTCTTGCGGAGTCACCTAGTGCAG”, the binding signal was 7470 fluorescence intensity (a.u.).

Regarding “GAAACAAATTACGGCCCATTTATATATGGATATGGGCCGGCGGAGTCACCTAGTGCAG”, the binding signal was 9880 fluorescence intensity (a.u.).

As for “ACAGATTGCGTGTAAATTACGAGACGAATCTTTTAAACCTCGGAGTCACCTAGTGCAG”, the binding signal is 21100 fluorescence intensity (a.u.).

As for “CTCATTAATTTCAGCTGAAATGAAATAAGTATAATTGGAGCGGAGTCACCTAGTGCAG”, the binding signal was 14700 fluorescence intensity (a.u.).

For “GCTCAACTGGGATAGATAGATGGATGAATGGATGTCCTACCGGAGTCACCTAGTGCAG”, the binding signal is 6430 fluorescence intensity (a.u.).

Turning to “TTTGGCTCTGATTGTTTTCTTGTACAGTTTGCTTAAACTCCGGAGTCACCTAGTGCAG”, the binding signal was 11400 fluorescence intensity (a.u.).

As to “ATATATATATATATATATATATATATATATTCATAAATTACGGAGTCACCTAGTGCAG”, the binding signal is 3450 fluorescence intensity (a.u.).

In the case of “AATAGATTATTAGGACAAAATTTGTTGAATATATGAAGTCCGGAGTCACCTAGTGCAG”, the binding signal is 17300 fluorescence intensity (a.u.).

With “TCTTTTCGAAAATGTTATTCAATCATTAATGACTAATAACCGGAGTCACCTAGTGCAG”, the binding signal is 7540 fluorescence intensity (a.u.).

Turning to “TTCTAAATTGTATTTCTATATGGACTCTGCCTTTTCTTTTCGGAGTCACCTAGTGCAG”, the binding signal was 5800 fluorescence intensity (a.u.).

“ACTTAATTGGAAGGCCTGATGAGAGACACAAACAGTTGGCCGGAGTCACCTAGTGCAG”: the binding signal is 39600 fluorescence intensity (a.u.).

Regarding “ATGTCATTATCATGATTATGTGTAGTTGTCAACAAAACTTCGGAGTCACCTAGTGCAG”, the binding signal was 7260 fluorescence intensity (a.u.).

Consider “GAAAACTCAATTCTAGATTTGAATCTGACACACAATTGAGCGGAGTCACCTAGTGCAG”, for which the binding signal was 4220 fluorescence intensity (a.u.).

On to “TGCACTTTACTCTATTTTGATTTAGATTATGACAATATGTCGGAGTCACCTAGTGCAG”, for which the binding signal was 4910 fluorescence intensity (a.u.).

Turning to “ACTGATTACTCAACTATACTTATCGCATAAAGATATCCTTCGGAGTCACCTAGTGCAG”, the binding signal was 24800 fluorescence intensity (a.u.).

“GCTTTCGTGATTACGACTTACCGTCGTGCTGCGCCCTTCACGGAGTCACCTAGTGCAG”: the binding signal was 10200 fluorescence intensity (a.u.).

With “TTGCTTTGATTACTATACCATTCTCCAATATTCCTCATAACGGAGTCACCTAGTGCAG”, the binding signal was 13200 fluorescence intensity (a.u.).

For “TTTAATTAATATTTTCATTCTAGACCAAACAATTTTACATCGGAGTCACCTAGTGCAG”, the binding signal is 23800 fluorescence intensity (a.u.).

For the sequence “TGCTTATGCATGATTGGATCTAGGATATGTGGATCAATGACGGAGTCACCTAGTGCAG”, the binding signal is 11400 fluorescence intensity (a.u.).

For the sequence “CATCATGAGTGACTAATTGGCCCTGCTGGCTGTGCAGACACGGAGTCACCTAGTGCAG”, the binding signal is 16600 fluorescence intensity (a.u.).

Consider “GTGATAATGTCCATCAATCTAGCAAATCATTCTCACAACGCGGAGTCACCTAGTGCAG”, for which the binding signal was 26800 fluorescence intensity (a.u.).

Regarding “AAAACACATGATAGATAACTCTCGTACTCGTATTATTCTGCGGAGTCACCTAGTGCAG”, the binding signal was 6480 fluorescence intensity (a.u.).

In the case of “TCTAAATTTTATTGGAGTGAAATTATATTTTATCCATGAGCGGAGTCACCTAGTGCAG”, the binding signal is 14000 fluorescence intensity (a.u.).

For the sequence “TCACAAAATTGAGACCAAGACACAAACTAACTACTGTACTCGGAGTCACCTAGTGCAG”, the binding signal is 7430 fluorescence intensity (a.u.).

Regarding “TCACAACCTAGGTAATTGGAAGAATTAGCTACTATGATTCCGGAGTCACCTAGTGCAG”, the binding signal was 8860 fluorescence intensity (a.u.).

Take “TTCGATTTAAATTATTCATGAAATGCAATTCCATTTATTACGGAGTCACCTAGTGCAG”: the binding signal was 5100 fluorescence intensity (a.u.).

In the case of “TGTCACTATTGTAATTTAATATGTATTATCCTCCTCAACACGGAGTCACCTAGTGCAG”, the binding signal is 4790 fluorescence intensity (a.u.).

“TTTAGATTTGACAATTAACTATTTGACACACCTATCTCAACGGAGTCACCTAGTGCAG”: the binding signal was 18200 fluorescence intensity (a.u.).

With “GTTGTTCCGATAATTGGACAAACCGACGAAGGCACAAATTCGGAGTCACCTAGTGCAG”, the binding signal is 9210 fluorescence intensity (a.u.).

Regarding “ACAACCAATTATCACAACGTAACATTCAAAACGAGTGTAGCGGAGTCACCTAGTGCAG”, the binding signal is 10100 fluorescence intensity (a.u.).

For “GCAGCATTAATTGCATGATGAACATGCTTGGAATTGGTCGCGGAGTCACCTAGTGCAG”, the binding signal was 23500 fluorescence intensity (a.u.).

For “ACTTTCTGTCAATTAGCCATTAGGTCAGTAGCCCAAAGTCCGGAGTCACCTAGTGCAG”, the binding signal is 24300 fluorescence intensity (a.u.).

“AGGAGGCAAACCCTAGATTGATTTCGCGTGTGTTGCGTGACGGAGTCACCTAGTGCAG”: the binding signal was 4160 fluorescence intensity (a.u.).

As for “ACCTGATTTTATCCTTTCTTTGCCTCAGTAGCCAATTCTCCGGAGTCACCTAGTGCAG”, the binding signal is 9990 fluorescence intensity (a.u.).

As to “CCACGTCAATCAAAATTACCTTCTAACCCGCCGAGGGAACCGGAGTCACCTAGTGCAG”, the binding signal was 29000 fluorescence intensity (a.u.).
